# Assay results: publication PMC4336329 (PLoS ONE, 2015)
# Out of some 310,000 compounds screened, about 14,000 (4.5%) showed an effect of 50% or more. The effect is printed as a negative number. The list shows a part of the results.
# Target: human ether-à-go-go-related gene (hERG) potassium channel (human, UniProt Q12809)
# Test: primary screen, population patch clamp on CHO cells stably expressing hERG
# 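Note: peak tail current of the secondary pulse compared with the same well before compound.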
# human ether-à-go-go-related gene (hERG) potassium channel, sequence (Q12809 whole entry, looked up): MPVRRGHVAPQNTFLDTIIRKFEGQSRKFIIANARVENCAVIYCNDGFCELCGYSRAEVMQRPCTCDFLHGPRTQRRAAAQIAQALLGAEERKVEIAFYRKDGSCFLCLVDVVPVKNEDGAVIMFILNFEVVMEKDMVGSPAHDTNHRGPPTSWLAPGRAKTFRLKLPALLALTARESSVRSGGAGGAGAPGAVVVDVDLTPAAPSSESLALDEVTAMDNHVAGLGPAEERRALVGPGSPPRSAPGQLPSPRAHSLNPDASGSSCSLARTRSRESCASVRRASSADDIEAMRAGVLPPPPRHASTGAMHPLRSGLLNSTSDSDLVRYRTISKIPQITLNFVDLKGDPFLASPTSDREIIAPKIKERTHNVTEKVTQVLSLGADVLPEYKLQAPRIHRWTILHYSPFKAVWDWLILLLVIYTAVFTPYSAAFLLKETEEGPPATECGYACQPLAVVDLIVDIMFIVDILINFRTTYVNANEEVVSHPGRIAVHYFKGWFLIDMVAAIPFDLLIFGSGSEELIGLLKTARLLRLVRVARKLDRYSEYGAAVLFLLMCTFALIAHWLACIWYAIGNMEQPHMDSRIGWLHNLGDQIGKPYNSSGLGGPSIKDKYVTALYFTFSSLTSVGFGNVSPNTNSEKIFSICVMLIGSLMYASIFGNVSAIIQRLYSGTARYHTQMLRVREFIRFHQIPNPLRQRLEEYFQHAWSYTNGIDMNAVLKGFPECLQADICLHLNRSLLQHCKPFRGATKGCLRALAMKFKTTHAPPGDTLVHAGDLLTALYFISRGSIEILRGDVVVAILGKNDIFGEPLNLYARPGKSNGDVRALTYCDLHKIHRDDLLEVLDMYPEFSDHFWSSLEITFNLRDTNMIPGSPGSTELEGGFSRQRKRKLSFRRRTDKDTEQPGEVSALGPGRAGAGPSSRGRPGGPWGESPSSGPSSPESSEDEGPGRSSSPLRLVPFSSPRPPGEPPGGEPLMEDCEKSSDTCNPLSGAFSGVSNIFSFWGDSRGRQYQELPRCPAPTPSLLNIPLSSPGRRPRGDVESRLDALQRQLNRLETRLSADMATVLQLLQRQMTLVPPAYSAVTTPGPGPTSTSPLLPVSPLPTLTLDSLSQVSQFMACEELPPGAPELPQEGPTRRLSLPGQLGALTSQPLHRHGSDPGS
row,SMILES,"hERG current change (%, negative = inhibition) at 10uM [%]"
1,O=c1c2c3c(sc2ncn1Cc1ccc(F)cc1)CCC3,-15.3
2,CN1C(=S)SC(/[N+]([O-])=C\c2ccc(Cl)cc2)C1(C)C (stereo not drawn),-4.58
3,COc1cccc(CN2CCN(C3CCOCC3)CC2CCO)c1 (stereo not drawn),0.171
4,CCN(CC)S(=O)(=O)c1ccc2c(c1)nc(CCC(=O)Nc1ccc(N3CCOCC3)cc1)n2C,-6.8
5,COc1cccc2cc(C(=O)c3ccccc3)oc12,0.79
6,CCC(C)NC(=S)Nc1ccc(F)cc1 (stereo not drawn),14.6
7,CC1(c2ccc(Cl)cc2)NC(=O)N(CC(=O)N2CCc3ccccc3C2)C1=O (stereo not drawn),-38.9
8,CCn1cnc2cc(NC(=O)c3cccs3)ccc21,-6.25
9,COc1ccc(CN(C(=S)Nc2ccccc2)C2CC(=O)N(c3ccc(Cl)cc3)C2=O)cc1 (stereo not drawn),1.63
10,COc1ccc(C(=S)N2CCOCC2)cc1OC(=O)c1ccccc1,5.91
11,COC(=O)C1=C(c2ccc(F)cc2OCc2ccccc2)C[C@@H]2CC[C@H]1N2C(=O)NCc1ccc([N+](=O)[O-])cc1,-10.9
12,O=C(CCl)Nc1ccccc1C(=O)c1ccccc1,-3.69
13,O=C(Nc1nc(-c2ccc(F)c(F)c2)cs1)c1cnccn1,0.033
14,CC1(C)Cc2ccccc2C(N/N=C/c2ccc([N+](=O)[O-])cc2)=N1,16.9
15,O=C1OC(/C=C/c2ccc(Cl)cc2)=NC/1=C/c1ccco1,2.78
16,Cc1ccc(-c2c(C(=O)O)c3ccccc3[nH]c2=O)cc1,18.7
17,CN(CC(=O)Nc1ccc(F)cc1)C(=O)C1CCCC1,-12.3
18,COc1ccc(Cc2nnc(NS(=O)(=O)c3ccc(NC(C)=O)cc3)s2)cc1,13.7
19,O=C(Nc1ccccc1N1CCOCC1)c1ccco1,0.742
20,COc1ccc(CSc2nnc(Cc3sc(-c4ccccc4)nc3-c3ccccc3)o2)cc1,8.16
21,Nc1nc(N)c(N=Nc2ccc(S(N)(=O)=O)cc2)c(=O)[nH]1,18.1

row,SMILES,"hERG current change (%, negative = inhibition) at 10uM [%]"
1,CC(/C=N\NC(=O)c1ccc(C)nc1)=C\c1ccccc1,12.1
2,O=C(NC(=S)Nc1ccccc1N1CCCC1)c1ccc([N+](=O)[O-])cc1,10.2
3,CC(Oc1ccc2c(-c3ccccc3)cc(=O)oc2c1)C(=O)NCCN1CCOCC1 (stereo not drawn),-2.98
4,O=C(CC12CC3CC(CC(C3)C1)C2)NCC(=O)N1CCc2ccccc2C1,-8.36
5,CCO[C@@H]1OC(C(=O)N2CCN(Cc3ccccc3)CC2)=C[C@H](C2CC2)[C@H]1CCCO,-23.8
6,Cc1[nH]nc(SCC(=O)NCc2ccc(Cl)cc2)c1[N+](=O)[O-],6.48
7,CCOC(=O)c1ccc(N2C(=O)CC(Nc3ccc(O)cc3)C2=O)cc1 (stereo not drawn),1.63
8,COc1ccc(C2C(C(=O)N3CCN(c4ccccn4)CC3)CCC(=O)N2c2cc(OC)c(OC)c(OC)c2)cc1 (stereo not drawn),9.77
9,CCOC(=O)c1sc(N2C(=O)C(O)=C(C(=O)c3ccc(C)o3)C2c2cccc([N+](=O)[O-])c2)nc1C (stereo not drawn),17.8
10,COc1ccc(N2CCN(C(=O)c3ccc4c(c3)[nH]c(=S)n3c5ccccc5nc43)CC2)cc1,16.7
11,CC(C)(C)c1ccc(OCC(=O)N/N=C/c2ccc(N3CCOCC3)cc2)cc1,-10
12,O=C(Nc1cc(F)ccc1F)c1cccc(-n2cnnn2)c1,-18.3
13,COc1ccc(OC)c(S(=O)(=O)Nc2c(F)cccc2F)c1,16
14,Cl.Clc1cccc(Cl)c1CNC1CCCC1,13.5
15,COc1ccc(NS(=O)(=O)c2cccc(C(=O)NNC(=O)c3ccc(NC(C)=O)cc3)c2)cc1,-5.82
16,CSc1ccc(/C=C2\C(=N)N3N=C(CC(=O)N4CCCCC4)SC3=NC2=O)cc1,5.53
17,CCOc1ccccc1OCCCC(=O)NNC(=O)c1cc(C)oc1C,14.9
18,CCCCCCC1/C(=N/O)CCC1C(=O)OC (stereo not drawn),-4.75
19,Cc1occc1C(=O)NNC(=O)C1CCCCC1,7.55
20,O=[N+]([O-])c1ccccc1S(=O)(=O)Nc1cccnc1,40.3
21,Cc1oc(/N=C/c2cccc3ccccc23)c(C#N)c1C,0.128

row,SMILES,"hERG current change (%, negative = inhibition) at 10uM [%]"
1,COC(=O)c1cc(OC)c(OC)cc1NC(=O)c1ccc(Br)o1,4.74
2,COc1ccccc1/C=N/NC(=O)CNC(=O)c1ccc(S(=O)(=O)N(C)C)cc1,13.4
3,CN(CCn1ccnc1)C(=O)CC1C(=O)NCCN1Cc1ccccc1C(F)(F)F (stereo not drawn),1.11
4,CC1Nc2ncnc(N3CCc4ccccc4C3)c2N(Cc2ccc(Cl)cc2)C1=O.O=C(O)C(F)(F)F (stereo not drawn),-2.38
5,CC(C)C[C@H](N)C(=O)N1CCC(C(=O)N[C@H](C(=O)NC(C)c2ccccc2)C(C)C)CC1 (stereo partly drawn),7.77
6,Cc1cccc(OCC(=O)OCC(=O)N(CC(C)C)c2c(N)n(Cc3ccccc3)c(=O)[nH]c2=O)c1C,1.47
7,C=C(C)COc1ccc(-c2nc(N)ncc2-c2ccc(Cl)cc2)c(O)c1,8.91
8,O=C(NN1C(=O)C2C3C=CC(C4CC34)C2C1=O)c1ccccc1Cl (stereo not drawn),0.861
9,CNc1oc(Cc2ccccc2)nc1S(=O)(=O)c1ccc(Cl)cc1,-16
10,CC(=O)Nc1ccc(NC(=O)C(C)OC(=O)c2cccs2)cc1 (stereo not drawn),-0.153
11,CCCC(C)NC(=O)Cc1ccc(S(=O)(=O)N2CCOCC2)s1 (stereo not drawn),2.63
12,CCn1cc(C(=O)NCc2ccc(C)cc2)c(=O)c2cc(S(=O)(=O)N(C)C)ccc21,8.52
13,O=C(c1cc(S(=O)(=O)N2CCOCC2)ccc1Cl)N1CCN(c2ccccn2)CC1,10.9
14,COc1cc(C2Nc3cccc4cccc(c34)N2)ccc1O,11.4
15,Cc1ccc2c(CC(=O)N(CC3CCCO3)c3c(N)n(Cc4ccccc4)c(=O)[nH]c3=O)coc2c1 (stereo not drawn),-1.74
16,CN1CCO/C1=C(\C(Cl)=C(Cl)Cl)[N+](=O)[O-],17.8
17,O=C1CCC(=O)N1c1ccc(S(=O)(=O)N2CCCC2)cc1,1.94
18,O=C(Cn1ccc([N+](=O)[O-])n1)Nc1nccs1,4.65
19,COc1cccc(-c2ccc3nnc(SCC(=O)Nc4ccc(NC(C)=O)cc4)n3n2)c1,2.63
20,CN(Cc1ccccc1)C(=O)CN1C(=O)NC2(CCCCCCC2)C1=O,-11.7
21,CC(=O)Nc1ccc2c(CSc3nnc(-c4cccnc4)n3-c3ccc(C)cc3C)cc(=O)oc2c1,-17.8

row,SMILES,"hERG current change (%, negative = inhibition) at 10uM [%]"
1,Cc1cc(C)c2sc(NNC(=O)C3COc4ccccc4O3)nc2c1 (stereo not drawn),5.82
2,Cc1ccc2[nH]ccc(=O)c2c1,11.7
3,CN(CCc1ccccn1)C(=O)CCC1CCCN(Cc2ccccc2OC(F)F)C1 (stereo not drawn),1.62
4,CCOC(=O)[C@H]1[C@H]2COc3ccc(OC)cc3[C@@H]2N2C(=O)CN(Cc3ccc(F)cc3)C(=O)[C@@]12C,-26.5
5,CC1(C)S/C(=N/N=C/c2ccco2)NC1=O,13.9
6,CCn1cc(C(=O)NCCCN2CCN(C)CC2)c(=O)c2cc(S(=O)(=O)N3CCc4ccccc4C3)ccc21,-20.4
7,Nc1nc(C(c2ccccc2)c2ccccc2)cs1,5
8,CCn1c(C)nc2cc(C(=O)NNC(=O)c3ccc(Cl)nc3)ccc21,21.2
9,COc1cc(OC)c(OC)cc1CNC(=O)CCN1C(=O)c2cccc([N+](=O)[O-])c2C1=O,17.6
10,Cc1nn(-c2ccccc2)c(C)c1/C=N/NC(=O)c1cc(O)cc(O)c1,12.8
11,CC1CCN(C(=O)c2ccc(CSc3ccc(Cl)cc3)cc2)CC1,-22.8
12,COc1ccc(CCN2C(=O)c3cccc4cccc(c34)C2=O)cc1OC,12.9
13,COc1ccc(-c2nnc(SCC(=O)NC3CCCCC3)o2)cc1OC,-9.47
14,O=C(CSc1nnc2ccccn12)NNC(=O)c1cccc([N+](=O)[O-])c1,-6.28
15,Cc1cc(Nc2ccc(Br)cc2)nc2ccccc12,15.5
16,O=C(c1ccc(-n2cncn2)c([N+](=O)[O-])c1)N1CCN(c2cccc(Cl)c2)CC1,-68.5
17,COP(=O)(OC)C(NS(=O)(=O)c1ccccc1)C(Cl)(Cl)Cl (stereo not drawn),23.8
18,N#C/C(C(=O)NCc1ccco1)=C1/SC=C(c2ccccc2)N1c1ccccc1,-12.2
19,CCC(C(=O)N1C[C@H]2C[C@@H](C1)c1cccc(=O)n1C2)c1ccccc1 (stereo partly drawn),-2.49
20,CCN(CC)C(=O)C1CCN(Cc2ccc(OCc3ccccc3)c(OC)c2)CC1.O=C(O)C(=O)O,-32
21,O=C(CN1CCN(CC(=O)Nc2cccc(F)c2)CC1)NCC1(N2CCOCC2)CCCCC1,-27
